Test results from the GPR68 mutational scans of Howard et al. (2025).
Scores with a large standard error are left out. The source holds two more conditions with little spread; they are left out. Names with del lack the residues named; names with ins carry added residues between the positions named. For part of these data: The data file names ogerin without a concentration.

B1: GPR68, Q15743 (parent)
chain: MGNITADNSSMSCTIDHTIHQTLAPVVYVTVLVVGFPANCLSLYFGYLQIKARNELGVYLCNLTVADLFYICSLPFWLQYVLQHDNWSHGDLSCQVCGILLYENIYISVGFLCCISVDRYLAVAHPFRFHQFRTLKAAVGVSVVIWAKELLTSIYFLMHEEVIEDENQHRVCFEHYPIQAWQRAINYYRFLVGFLFPICLLLASYQGILRAVRRSHGTQKSRKDQIQRLVLSTVVIFLACFLPYHVLLLVRSVWEASCDFAKGVFNAYHFSLLLTSFNCVADPVLYCFVSETTHRDLARLRGACLAFLTCSRTGRAREAYPLGAPEASGKSGAQGEEPELLTKLHPAFQTPNSPGSGGFPTGRLA

Key:
[1] = variants of: B1; assay: cAMP reporter score (Enrich2 score, wild type = 0); higher = more signal; HEK293T, FACS bins
[2] = variants of: B1; assay: surface expression score (Enrich2 score, wild type = 0); higher = more signal; HEK293T, FACS bins

Row | Variant | cAMP reporter score ([1]; pH 5.5) | cAMP reporter score ([1]; pH 6) | cAMP reporter score ([1]; pH 6, modulator: ogerin) | cAMP reporter score ([1]; pH 6.5, modulator: ogerin) | surface expression score [2]
1 | H245_V246insGSG | -1.6 | -0.982 | -1.66 | -1.2 | -2.54
2 | H245_V246del | -1.54 | -1.4 | -1.54 | -1.36 | -2.13
3 | Y244_H245del | 0.026 | -0.244 |  | -1.09 | -2
4 | H245_V246insG | -2.5 | -1.35 | -1.88 | -1.53 | -2.09
5 | Y244del | -1.64 | -1.15 | -2.48 | -1.34 | -2.61
6 | MGNITADNSSMSCTIDHTIHQTLAPVVYVTVLVVGFPANCLSLYFGYLQIKARNELGVYLCNLTVADLFYICSLPFWLQYVLQHDNWSHGDLSCQVCGILLYENIYISVGFLCCISVDRYLAVAHPFRFHQFRTLKAAVGVSVVIWAKELLTSIYFLMHEEVIEDENQHRVCFEHYPIQAWQRAINYYRFLVGFLFPICLLLASYQGILRAVRRSHGTQKSRKDQIQRLVLSTVVIFLACFLPYHELLLVRSVWEASCDFAKGVFNAYHFSLLLTSFNCVADPVLYCFVSETTHRDLARLRGACLAFLTCSRTGRAREAYPLGAPEASGKSGAQGEEPELLTKLHPAFQTPNSPGSGGFPTGRLA [V246E] | -0.534 | -0.705 | -1.17 | -0.706 | -1
7 | MGNITADNSSMSCTIDHTIHQTLAPVVYVTVLVVGFPANCLSLYFGYLQIKARNELGVYLCNLTVADLFYICSLPFWLQYVLQHDNWSHGDLSCQVCGILLYENIYISVGFLCCISVDRYLAVAHPFRFHQFRTLKAAVGVSVVIWAKELLTSIYFLMHEEVIEDENQHRVCFEHYPIQAWQRAINYYRFLVGFLFPICLLLASYQGILRAVRRSHGTQKSRKDQIQRLVLSTVVIFLACFLPYHALLLVRSVWEASCDFAKGVFNAYHFSLLLTSFNCVADPVLYCFVSETTHRDLARLRGACLAFLTCSRTGRAREAYPLGAPEASGKSGAQGEEPELLTKLHPAFQTPNSPGSGGFPTGRLA [V246A] | -0.009 | -0.804 | -0.384 | -0.443 | -0.049
8 | MGNITADNSSMSCTIDHTIHQTLAPVVYVTVLVVGFPANCLSLYFGYLQIKARNELGVYLCNLTVADLFYICSLPFWLQYVLQHDNWSHGDLSCQVCGILLYENIYISVGFLCCISVDRYLAVAHPFRFHQFRTLKAAVGVSVVIWAKELLTSIYFLMHEEVIEDENQHRVCFEHYPIQAWQRAINYYRFLVGFLFPICLLLASYQGILRAVRRSHGTQKSRKDQIQRLVLSTVVIFLACFLPYHCLLLVRSVWEASCDFAKGVFNAYHFSLLLTSFNCVADPVLYCFVSETTHRDLARLRGACLAFLTCSRTGRAREAYPLGAPEASGKSGAQGEEPELLTKLHPAFQTPNSPGSGGFPTGRLA [V246C] | 0.952 | 0.034 | -0.665 |  | 
9 | MGNITADNSSMSCTIDHTIHQTLAPVVYVTVLVVGFPANCLSLYFGYLQIKARNELGVYLCNLTVADLFYICSLPFWLQYVLQHDNWSHGDLSCQVCGILLYENIYISVGFLCCISVDRYLAVAHPFRFHQFRTLKAAVGVSVVIWAKELLTSIYFLMHEEVIEDENQHRVCFEHYPIQAWQRAINYYRFLVGFLFPICLLLASYQGILRAVRRSHGTQKSRKDQIQRLVLSTVVIFLACFLPYHDLLLVRSVWEASCDFAKGVFNAYHFSLLLTSFNCVADPVLYCFVSETTHRDLARLRGACLAFLTCSRTGRAREAYPLGAPEASGKSGAQGEEPELLTKLHPAFQTPNSPGSGGFPTGRLA [V246D] | -1.4 | -0.706 | -1.39 | -0.802 | -1.84
10 | H245_V246insGS | -1.36 | -0.757 | -1.49 | -0.75 | -2.18
11 | Y244_H245insG | -1.11 | -1.7 | -1.43 | -0.558 | -1.86
12 | H245del | -1.51 | -0.72 | -1.6 | -0.993 | -2.48
